# Test results published in PubChem BioAssay AID720708 (National Center for Advancing Translational Sciences (NCATS), 2013).
# Screen size: about 360,000 compounds; about 660 (0.18%) were called active. The shares of active, inactive and inconclusive entries below differ from those in the screen. Calls follow the shape of the dose curve; as a rule, active = well fitted inhibition curve with a large enough effect; inconclusive = small, poorly fitted or top-dose-only effect; inactive = no such curve, though single readings can be large or run the other way. No potency is given beside an inconclusive call; the fits are too rough.
# Molecular target: Rap guanine nucleotide exchange factor 4 (Homo sapiens) (UniProt Q8WZA2)
# UniProt Q8WZA2, sequence (Q8WZA2 whole entry, looked up): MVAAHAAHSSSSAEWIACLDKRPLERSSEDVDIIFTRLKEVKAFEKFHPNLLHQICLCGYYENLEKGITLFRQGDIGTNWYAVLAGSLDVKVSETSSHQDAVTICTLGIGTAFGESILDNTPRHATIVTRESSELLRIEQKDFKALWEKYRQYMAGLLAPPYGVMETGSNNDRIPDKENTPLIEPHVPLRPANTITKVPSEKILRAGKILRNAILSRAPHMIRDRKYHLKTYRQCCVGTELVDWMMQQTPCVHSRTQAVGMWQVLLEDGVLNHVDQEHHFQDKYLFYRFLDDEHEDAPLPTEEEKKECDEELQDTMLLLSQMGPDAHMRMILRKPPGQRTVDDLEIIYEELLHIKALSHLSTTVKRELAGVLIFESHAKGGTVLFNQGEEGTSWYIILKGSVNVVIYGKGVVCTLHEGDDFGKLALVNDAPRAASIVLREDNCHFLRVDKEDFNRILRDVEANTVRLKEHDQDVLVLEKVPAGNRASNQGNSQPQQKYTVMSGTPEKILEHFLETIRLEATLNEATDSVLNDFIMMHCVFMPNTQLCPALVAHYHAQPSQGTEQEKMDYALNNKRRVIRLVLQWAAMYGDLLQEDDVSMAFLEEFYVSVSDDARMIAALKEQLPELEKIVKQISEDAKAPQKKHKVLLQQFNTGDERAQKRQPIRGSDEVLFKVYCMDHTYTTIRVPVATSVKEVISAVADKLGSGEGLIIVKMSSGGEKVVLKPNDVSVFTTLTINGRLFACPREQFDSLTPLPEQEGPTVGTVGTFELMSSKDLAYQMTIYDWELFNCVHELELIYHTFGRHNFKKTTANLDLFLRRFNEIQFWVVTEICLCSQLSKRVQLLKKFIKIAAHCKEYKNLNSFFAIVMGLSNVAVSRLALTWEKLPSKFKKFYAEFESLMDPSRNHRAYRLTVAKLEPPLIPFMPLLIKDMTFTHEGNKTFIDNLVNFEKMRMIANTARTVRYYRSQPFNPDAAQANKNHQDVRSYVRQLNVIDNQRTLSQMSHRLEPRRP
# Assay: qHTS for Antagonist of cAMP-regulated guanine nucleotide exchange factor 2 (EPAC2): primary screen; also: nearly all actives have a fitted effect of over 45% in size
# Details: EPAC2 GEF exchange of Rap1B-BODIPY-GDP, fluorescence; activity, negative = inhibition: at 114 µM (top of the series) unless noted
# % is scaled to controls: 0 for no effect and ±100 for the full control effect; potency is read from the fitted curve at half-maximal effect; tags tell the direction and shape of the fitted curve.
SMILES,Potency,"activity, negative = inhibition"
Cc1onc(-c2c(F)cccc2Cl)c1C(=O)c1ccccc1,"inconclusive [inhibitor, partial curve]",
COc1cccc(C(NC(C)=O)c2ccc3cccnc3c2O)c1 (centres undefined),"inconclusive [inhibitor, partial curve]",
COc1ccc(NC2c3ccccc3C(=O)N2c2ccccn2)cc1 (centres undefined),"inconclusive [inhibitor, partial curve]",
CCOc1ccc(OCc2ccc(C(=O)NCc3cccnc3)o2)cc1,,inactive: -1.24%
COc1cccc(C2NC(=S)NC3=C2CCc2ccccc23)c1 (centres undefined),,inactive: -0.438%
CC1=NN(S(=O)(=O)c2ccc(Cl)cc2Cl)C(=O)c2ccccc2O1,"inconclusive [inhibitor, partial curve]",
O=S(c1cc(Cl)cc(Cl)c1O)c1cc(Cl)cc(Cl)c1O,active: 37.7 µM,
O=C(CN(c1ccccc1Cl)S(=O)(=O)c1ccccc1)N/N=C/c1ccccc1C(=O)O,"inconclusive [inhibitor, single point]",
C/C(=N\NC(=O)c1cc(-c2cccc(OC(C)C)c2)nc2ccccc12)c1cccnc1,"inconclusive [inhibitor, partial curve]",
Cc1ccccc1CCNC(=O)c1cc(C2CC2)nc2c1cnn2C(C)C,"inconclusive [inhibitor, partial curve]",
Cc1c(C(=O)OCC(=O)Nc2cccc(S(N)(=O)=O)c2)oc2c1ccc1ccccc12,"inconclusive [inhibitor, single point]",
CCOc1ccc(NC(=O)CC2C(=O)N(c3ccccc3)C(=O)N2CCc2cccs2)cc1 (centres undefined),"inconclusive [inhibitor, partial curve, poor fit]",
C=CC(=O)Nc1cccc(Oc2ccnc3[nH]ccc23)c1,"inconclusive [inhibitor, single point]",
COCCNC(=O)Cn1nc(-c2ccc(Cl)cc2)c2ccccc2c1=O,"inconclusive [inhibitor, single point]",
C(=C\c1ccco1)/c1ccc2ccccc2n1,,inactive: -1.41%
CCCC(=O)Oc1ccc(-c2nccc(C(OC)OC)n2)cc1,,inactive: 3.12%
CSCCC(C(=O)Nc1c(C)cccc1C)n1c(-c2cnc(C)cn2)nc2ccccc21 (centres undefined),,inactive: -27.4%
COc1ccc(NC(=O)CN2CCC(NC(=O)c3ccco3)CC2)c([N+](=O)[O-])c1,,inconclusive: -7.46% [inhibitor]
O=C1CC(Cc2ccccc2)C(=O)N1CCc1ccc2c(c1)OCO2 (centres undefined),active: 11.2 µM,
O=C(CCC1COc2ccccc2O1)N1CCCC1 (centres undefined),"inconclusive [inhibitor, full curve, poor fit]",
COc1ccccc1CNC(=O)c1sccc1-c1ccccc1,"inconclusive [inhibitor, full curve]",
O=C(NCc1cccc(C(F)(F)F)c1)C1C(=O)Nc2ccccc2C(=O)N1C1CCCC1 (centres undefined),,inactive: -5.67%
O=C1C(Cl)=C(NC(=O)c2ccccc2)C(=O)C(Cl)=C1NC(=O)c1ccccc1,,inactive: 3.69%

SMILES,Potency,"activity, negative = inhibition"
Cc1c(CCC(=O)O)c(=O)oc2cc3occ(-c4ccccc4)c3cc12,"inconclusive [inhibitor, partial curve]",
CCN(CC)CCC#CC(O)(c1ccccc1)c1ccccc1,,inactive: 10.8%
COc1ccc(OCc2nc3ccccc3n2C(C)C)cc1,"inconclusive [inhibitor, partial curve]",
COc1ccc2cc(C(c3nnnn3C3CCCC3)N3CCOCC3)c3nnnn3c2c1 (centres undefined),"inconclusive [inhibitor, single point]",
O=C(CSc1nc(-c2ccccc2)nc2c1CCCC2)N1CCOCC1,,inactive: 0.878% [at 57.1 µM]
CC1CCN(c2oc(-c3ccccc3F)nc2C#N)CC1,"inconclusive [inhibitor, partial curve, poor fit]",
CC1(C)c2[nH]c3ccccc3c2C[C@@H]2C(=O)N(Cc3ccccc3Cl)C(=O)N21,,inactive: 1.12%
CCOC1(OCC)C(c2ccc(N)cc2)C(C#N)(C#N)C1(OCC)OCC (centres undefined),"inconclusive [inhibitor, single point]",
CC(C)C[C@H]1CNC(=O)C(=O)N1C[C@H]1CCCN1C[C@H](Cc1ccc(O)cc1)N1C[C@H](CC(C)C)N(CC2CCCCCC2)C(=O)C1=O,"inconclusive [inhibitor, single point]",
COc1ccc(C(=O)Nc2nc3ccc(OC)cc3s2)cc1,,inactive: -2.91%
CCOC(=O)C1=CC[C@@H](c2ccc([N+](=O)[O-])cc2)N(S(=O)(=O)c2ccc(C)cc2)[C@H]1c1ccccc1,,inconclusive: 13.4% [inhibitor]
Cc1ccc(C)n1-c1nn(S(=O)(=O)c2ccccc2)c2cccc(F)c12,"inconclusive [inhibitor, partial curve]",
Cc1c(CC(=O)O)c(=O)oc2cc3occ(-c4ccccc4)c3cc12,"inconclusive [inhibitor, partial curve]",
Cc1cc(C)c2c(CN3CCC(C)CC3)cc(=O)oc2c1,"inconclusive [inhibitor, partial curve]",
CCSc1nc(C)nc2sc(C)c(C)c12,"inconclusive [inhibitor, full curve]",
COC(=O)c1cc(Cl)cc2c(C)c(C3(O)CCCCC3)[nH]c12,"inconclusive [inhibitor, partial curve]",
CCCn1c(N)c(N(CCOC)C(=O)CSCC(=O)Nc2cccc(C)c2)c(=O)[nH]c1=O,,inactive: 9.14%
COc1ccc(NC(=O)c2cccn(CC=C(C)C)c2=O)cc1,,inactive: -6.31%
C=CCOC(=O)C1=C(C)NC(SCC(N)=O)=C(C#N)C1c1ccc(C)cc1 (centres undefined),"inconclusive [inhibitor, partial curve]",
CCN(CC)c1nc2ccccc2nc1C(C#N)C(=O)NCCc1ccccc1 (centres undefined),active: 31.6 µM,
CC(=O)NC(c1ccc2ccccc2c1)c1ccc2cccnc2c1O (centres undefined),"inconclusive [inhibitor, partial curve]",
NC(=O)C1=C(c2ccccc2)c2ccccc2C1=O,,inactive: -1.74%
O=C(/C=C/c1ccccc1)Nc1ccc(Cl)cn1,,inactive: 3.66%

SMILES,Potency,"activity, negative = inhibition"
CN1C(=O)c2ccccc2N(C)C1c1ccccc1Cl (centres undefined),"inconclusive [inhibitor, single point]",
COC(=O)c1ccc(CNC(=O)/C=C/[C@H]2O[C@@H](n3cc(C)c(=O)[nH]c3=O)C[C@@H]2O)cc1,"inconclusive [inhibitor, single point]",
Oc1c(Br)cc(Br)cc1CNc1ccccn1,"inconclusive [inhibitor, partial curve, poor fit]",
COc1cc2oc(=O)cc(-c3cccc(-c4cccc(C)c4)c3)c2c(OC)c1OC,"inconclusive [inhibitor, full curve, poor fit]",
O=C(CN1CCCC1)Nc1ccccc1Sc1ccc(Cl)cc1,"inconclusive [inhibitor, partial curve]",
CC1(C(=O)NS(=O)(=O)c2cccs2)CCN1C(=O)Cc1ccc(-c2ccccc2)cc1 (centres undefined),"inconclusive [inhibitor, single point]",
COc1ccc(C2=NOC(Cn3nc(-c4ccccc4)cc3C(=O)NCc3cccc(C(F)(F)F)c3)C2)cc1 (centres undefined),"inconclusive [inhibitor, full curve, poor fit]",
CCOC(=O)C1=C(C)NC(SC)=C(C#N)C1CC(C)C (centres undefined),"inconclusive [inhibitor, partial curve]",
CCOc1ccccc1Cn1c(=O)sc2ccccc21,"inconclusive [inhibitor, partial curve]",
CC1CCc2[nH]c3ccc(C(=O)N(C)CC(=O)Nc4ccccc4Br)cc3c2C1 (centres undefined),"inconclusive [inhibitor, single point]",
COc1ccc(CCN(C)c2ncnc3sccc23)cc1OC,,inactive: 7.45%
Cc1nn(-c2ccccc2)c(Cl)c1CN(C(=O)CCl)c1cccc2ccccc12,"inconclusive [inhibitor, partial curve]",
O=C1C=C(c2ccccc2Oc2ccccc2)C[C@@H](c2ccc3c(c2)OCO3)C1,"inconclusive [inhibitor, full curve]",
COCCCn1c(=O)/c(=C\c2cccc(OC)c2OC)s/c1=C(/C#N)C(=O)Nc1ccc(C(=O)O)cc1,,inactive: 25.9%
C[C@@H]1CN([C@H](C)CO)C(=O)CCCn2cc(nn2)CO[C@H]1CN(C)C(=O)Nc1cccc2ccccc12,,inactive: 6.96%
C=CCN(Cc1ccc(Br)s1)C(=O)c1ccc(OCc2c(C)noc2C)cc1,"inconclusive [inhibitor, partial curve]",
O=[N+]([O-])c1cc(Br)ccc1NS(=O)(=O)c1ccccc1,"inconclusive [inhibitor, full curve]",
O=C(NCc1ccccc1)c1cc(C2CCCCN2S(=O)(=O)c2ccccc2)on1 (centres undefined),"inconclusive [inhibitor, full curve, poor fit]",
COC(=O)Cc1ccc2sc(-c3ccccc3)nc2c1,,inactive: -4.94%
C(=C(c1ccccc1)c1ccccc1)c1ccccn1,"inconclusive [inhibitor, full curve]",
Clc1ccc(SCCCCn2ccnc2)cc1,"inconclusive [inhibitor, single point]",
c1ccc(-c2cc(N3CCCCC3)c3ccccc3n2)cc1,"inconclusive [inhibitor, partial curve, poor fit]",
O=C(O)/C(=C\c1ccc2ccccc2c1)c1cccc2ccccc12,"inconclusive [inhibitor, partial curve]",
